In the RNAGym collection of RNA variant scans (doi:10.7554/elife.90254):
Read counts are not given, so values of variants with three or more changes are uncertain.

B1: LINE1-mini (parent)
chain: GGCAGAGCUCAACACAGCGUGGCAAAGUGGCUGUGGCUAGACUGCC

Variants of: B1
Assay: self-cleavage, relative activity (ratio to wild type); higher = more cleavage; in vitro, sequencing; the parent is a self-cleaving ribozyme

Question: Which self-cleavage does the source give for GGCACAGCUCAGCACUGCGUGGCCAAGUGGCUGUGGCUAGACCGCC [G5C A12G A16U A24C U43C] here?
Answer: The self-cleavage was 0.03.

Question: For GUCAAAGCUCAACACAGCGUGGCAAAGUGGCUGUAGCUAGACUGCC [G2U G5A G35A], which self-cleavage is on record?
Answer: The self-cleavage was 0.02.

Question: With GGCAGAGCUCAAUACAGCGUGGCACAGUGGCUGUAGCUAGCCUGCC [C13U A25C G35A A41C] as the variant, how does the self-cleavage read?
Answer: Its self-cleavage is 0.02.

Question: For GGCAGAGCUCAACACAGAGUGGCAAAGUGGCUGUGUCUAGUCUUCC [C18A G36U A41U G44U], which self-cleavage is on record?
Answer: Its self-cleavage is 0.07.

Question: Which self-cleavage does the source give for GACAAAGCUCAACACAGCGUGGCAAAGUGGUGGUGGCUAGACUACC [G2A G5A C31U U32G G44A] here?
Answer: Its self-cleavage is 0.23.

Question: With UGCAGAGCUCAACACAGCAUGACAAAGUGGCUGUGGCUAGACUACC [G1U G19A G22A G44A] as the variant, how does the self-cleavage read?
Answer: The self-cleavage was 0.13.

Question: Which self-cleavage does the source give for GGCAGAGCUCAACACAGCCAGGCAAAGUGGCUGUGACUAGACUUCC [G19C U20A G36A G44U] here?
Answer: Its self-cleavage is 0.05.

Question: With GGCAGAGCGGAAAACAGCGUGGCAAAGUGGCUGUGGCUAGACUGCC [U9G C10G C13A] as the variant, how does the self-cleavage read?
Answer: The self-cleavage was 0.03.

Question: For GGCAGAGCUCAACACAGCGUGACGAAGUGGCUGUGGUUAGACUGCC [G22A A24G C37U], which self-cleavage is on record?
Answer: The self-cleavage was 0.02.

Question: Which self-cleavage does the source give for GUCAGCGCUCAACACAGCGUGGCAGAGUGGCUGUGGCUAGACUGCC [G2U A6C A25G] here?
Answer: The self-cleavage was 0.01.

Question: For GGCAGAGCUCGACACAGCGUGGCAAAGUGGCAGUGGGUAGACUGCC [A11G U32A C37G], which self-cleavage is on record?
Answer: Its self-cleavage is 0.01.

Question: Which self-cleavage does the source give for GGCAGAGCUGAACACGGCGCGGCGAACUGGCUGUGGCUAGACUGCC [C10G A16G U20C A24G G27C] here?
Answer: The self-cleavage was 0.02.

Question: With GGCAGAGGACAACACAGCGUGGCAAAGUGGCUUUGGCUAGACUGCC [C8G U9A G33U] as the variant, how does the self-cleavage read?
Answer: The self-cleavage was 0.09.

Question: For GGCAGAGCAAAACACAGCGUGGCAAAGAGGCUGUGGCUAGACUGCC [U9A C10A U28A], which self-cleavage is on record?
Answer: The self-cleavage was 0.02.

Question: For GGCAGAGCUCAACGCAGCGUGGCAAAGGGGCUGAGGCUAGACUGCC [A14G U28G U34A], which self-cleavage is on record?
Answer: The self-cleavage was 0.12.

Question: With AGCAGAGCUCAACAAACCGUGGCAAAGUGGCUCUGGCUAGACUGCC [G1A C15A G17C G33C] as the variant, how does the self-cleavage read?
Answer: The self-cleavage was 0.05.

Question: Which self-cleavage does the source give for GGCAGAGCUCAACACAGCGUGGCAAAGUGGCUAUGGCUUGGUUGCC [G33A A39U A41G C42U] here?
Answer: Its self-cleavage is 0.04.

Question: With GGCAGAACGCAACACAGUUUGGCAAAGUGGCUAUUGCUAGACUGCG [G7A U9G C18U G19U G33A G35U C46G] as the variant, how does the self-cleavage read?
Answer: The self-cleavage was 0.01.

Question: Which self-cleavage does the source give for GACAGAUCUCAACACAGCGCGGCAAAGUGGCUGUGGCUUGACUGCC [G2A G7U U20C A39U] here?
Answer: Its self-cleavage is 0.18.

Question: Which self-cleavage does the source give for GGCAGAGCUCAACACAGCGUGGCAAAGUGUCUGGGGCUUCACUGCC [G30U U34G A39U G40C] here?
Answer: Its self-cleavage is 0.01.

Question: With GGCAGAACUCAAAUCAGCGUGGCAAAGUGGCUGUGGCUAGACAGUC [G7A C13A A14U U43A C45U] as the variant, how does the self-cleavage read?
Answer: The self-cleavage was 0.19.

Question: With GGCAGCGCUCAACAAAGCGUGGCAAAGUGGCUGUGGGUAGACUGCC [A6C C15A C37G] as the variant, how does the self-cleavage read?
Answer: Its self-cleavage is 0.01.

Question: For GGCAUAACUCAACACAGCGUGGCAAAGAGGCUGUGGCUAGACUGCC [G5U G7A U28A], which self-cleavage is on record?
Answer: The self-cleavage was 0.06.

Question: For GGCAGAGCUCAACACAGCGUGGCAAAGGGGGUGUGGCGAAACUGCC [U28G C31G U38G G40A], which self-cleavage is on record?
Answer: The self-cleavage was 0.05.

Question: For AGCACAGCUCAACACAGGGUUGCAAAGUGGCUGUGACUAGACUGCC [G1A G5C C18G G21U G36A], which self-cleavage is on record?
Answer: Its self-cleavage is 0.09.

Question: With GGCAGAGAGCAACAUAGCUUGGCAAAGUGGCUGUGGCUAGACUGCC [C8A U9G C15U G19U] as the variant, how does the self-cleavage read?
Answer: Its self-cleavage is 0.06.

Question: With GGCAGAGCUCAACACAGCCUGGCAAAGUGGCUGUGGCUUGACUUCC [G19C A39U G44U] as the variant, how does the self-cleavage read?
Answer: The self-cleavage was 0.1.

Question: Which self-cleavage does the source give for GGCAGAGCUGAACACAGCGUGGCAACCUGGCCUUGGCUAGACAGAC [C10G A26C G27C U32C G33U U43A C45A] here?
Answer: The self-cleavage was 0.

Question: Which self-cleavage does the source give for GGCAGAGUUCAACACAGCGUGGGAAAGUGGGUGUGGCUAGACUGCC [C8U C23G C31G] here?
Answer: The self-cleavage was 0.05.

Question: With UGCAGAGCUCAACACAGCGUGGUAAAGUGGCUGUGUCUAGACUGCC [G1U C23U G36U] as the variant, how does the self-cleavage read?
Answer: Its self-cleavage is 0.03.

Question: With GGGAGAGCUCAACACAGCCUGACAAAGUGGCUGUGGCUAGACUGCC [C3G G19C G22A] as the variant, how does the self-cleavage read?
Answer: The self-cleavage was 0.37.

Question: With GGCAGAGCUAAACACAGCGUGGCAAAGUGGCUGUGGCGUGACUGCC [C10A U38G A39U] as the variant, how does the self-cleavage read?
Answer: Its self-cleavage is 0.06.

Question: Which self-cleavage does the source give for GGCAGAGCUCAACAUAUCGUGGUAAAGUGGUUUUGGCUAGACUGCC [C15U G17U C23U C31U G33U] here?
Answer: Its self-cleavage is 0.37.

Question: Which self-cleavage does the source give for GUCUGAGCUCAACACAGCGUGACAAAGUGGCUGUGGCUAGACUGCC [G2U A4U G22A] here?
Answer: The self-cleavage was 0.08.

Question: For GCCAGAGCUCAACCCAGCGUGGCAAAGUGGCUGUGACUAGACUGCC [G2C A14C G36A], which self-cleavage is on record?
Answer: Its self-cleavage is 0.06.

Question: With GGCAGAACUCAACACAGCGUGGCAAAGUGGCUGUGGCCAAACUGCC [G7A U38C G40A] as the variant, how does the self-cleavage read?
Answer: Its self-cleavage is 0.01.

Question: With GGCAGAGCUCAACACAGCCUUGCAUAGUGGCUGCGGCUAGACUGCC [G19C G21U A25U U34C] as the variant, how does the self-cleavage read?
Answer: Its self-cleavage is 0.23.

Question: With GGCAGAGAUCAACAAACCGUGGCGAAGUGGAUGUGGCUACACUGCC [C8A C15A G17C A24G C31A G40C] as the variant, how does the self-cleavage read?
Answer: Its self-cleavage is 0.01.

Question: Which self-cleavage does the source give for GGCAGUGCUCAACACGGCGUGGCAAAGUGGCUGUGGCUAGACAGCC [A6U A16G U43A] here?
Answer: The self-cleavage was 0.03.

Question: With GGCAGAGCUCAACACAGCUUGGCAAUGUGGCUGUGGAUAGACUGCC [G19U A26U C37A] as the variant, how does the self-cleavage read?
Answer: The self-cleavage was 0.03.

Question: For GACAGAGCGCAACACGGCUUGGCAAAGUGGCUGUUGCUAGGUUGCC [G2A U9G A16G G19U G35U A41G C42U], which self-cleavage is on record?
Answer: The self-cleavage was 0.26.

Question: With GGCAGUGCUCUACACAGGGUGGCAAAGUGGCUGUGGCUAGACUCCC [A6U A11U C18G G44C] as the variant, how does the self-cleavage read?
Answer: Its self-cleavage is 0.02.

Question: Which self-cleavage does the source give for GGCAGAGCUCAACAUAGCGGGGCAAUGUGGCUGUGGCUAGACUGCU [C15U U20G A26U C46U] here?
Answer: The self-cleavage was 0.26.

Question: Which self-cleavage does the source give for GGCAGAGCUGAACACAGCGUGGCAAAGUGACUGUGGCUCGACUGCC [C10G G30A A39C] here?
Answer: The self-cleavage was 0.02.

Question: For GGCAGAGCUCAACAGAGCGAGGCAAAGUGGCUGGGGCUAGACUUCC [C15G U20A U34G G44U], which self-cleavage is on record?
Answer: The self-cleavage was 0.03.

Question: For GGCAUAGCUCAACAGAGCGUGGCCAAGUGGCUGUCGCUAGAAUGCC [G5U C15G A24C G35C C42A], which self-cleavage is on record?
Answer: Its self-cleavage is 0.05.

Question: Which self-cleavage does the source give for AGCAGAGCUCAACACAGCGUGGCAGAGUGGCUGUGGCUACACUGCC [G1A A25G G40C] here?
Answer: Its self-cleavage is 0.03.

Question: For GGCACAGCUCAACACAGCGUGACAAAGUGGCUGUGGCUAGACUACC [G5C G22A G44A], which self-cleavage is on record?
Answer: The self-cleavage was 0.06.

Question: Which self-cleavage does the source give for GGCAUAGCUCAAUACAGCGUGGGAAAGGGGCUGUGGCUAGACUGCC [G5U C13U C23G U28G] here?
Answer: The self-cleavage was 0.02.

Question: With GGCAGAGCUCAAGACCGGGUGGCAAAGUGGCUUUGGCUAGACUGCC [C13G A16C C18G G33U] as the variant, how does the self-cleavage read?
Answer: The self-cleavage was 0.01.

Question: With GGCGGAGCUCAACACAGCGUGGCGAAGUGGCUGUGGGUAGACUGCC [A4G A24G C37G] as the variant, how does the self-cleavage read?
Answer: Its self-cleavage is 0.03.

Question: With GGCAGACCUCAACACAGCGUGGCAAAGUGACUGUGGCUAGACAGCC [G7C G30A U43A] as the variant, how does the self-cleavage read?
Answer: Its self-cleavage is 0.34.

Question: For GACAGAGCUCAACACAGCGUGGCAAACUGGCUGUGGCAAGACAGCC [G2A G27C U38A U43A], which self-cleavage is on record?
Answer: Its self-cleavage is 0.13.

Question: For GGCAGAGCUCAACACAUCGUGGCAAAGUGGAUGUCGCUAGACUGCC [G17U C31A G35C], which self-cleavage is on record?
Answer: Its self-cleavage is 0.02.

Question: Which self-cleavage does the source give for GACAGAGCUCAACACAGCGUGGCAAAGUGGGUGUGGUUAUACUGCC [G2A C31G C37U G40U] here?
Answer: The self-cleavage was 0.12.

Question: For UGCAGAACUCAACACAGCGUGGCAAAGUGGCGGUGGCUAGACUGCC [G1U G7A U32G], which self-cleavage is on record?
Answer: Its self-cleavage is 0.08.
